PubChem BioAssay AID720542 (National Center for Advancing Translational Sciences (NCATS), 2013)
Screen size: about 360,000 compounds; about 740 (0.21%) were called active. This list was built around the results that the source calls inconclusive (neither active nor inactive); the mix of calls is not that of the screen. Calls follow the shape of the dose curve; as a rule, active = well fitted inhibition curve with a large enough effect; inconclusive = small, poorly fitted or top-dose-only effect; inactive = no such curve, though single readings can be large or run the other way. Potencies of inconclusive entries are left out as doubtful fits.

Test system: Plasmodium falciparum AMA1 (3D7) - RON2 peptide interaction
Experiment: qHTS for Inhibitors of AMA1-RON; Towards Development of Antimalarial Drug Lead: Primary Screen; also: nearly all actives have a fitted effect of over 45% in size;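 as to activity change, negative = inhibition: 0% = vehicle wells and -100% = peptide control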
Conditions: AlphaScreen AMA1-biotinylated RON2 peptide binding; activity change, negative = inhibition: at 58.2 µM (top of the series) unless noted
Outline: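 AMA1 (3D7) with his tag at 25 nM final met compounds first, then biotinylated RON2 peptide at 25 nM; detection used donor plus acceptor beads, 10 µg/mL apiece, read by AlphaScreen after 30 min at room temperature.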
Potency is read from the fitted curve at half-maximal effect; tags tell the direction and shape of the fitted curve.

SMILES	Potency	activity change, negative = inhibition
Nc1ncncc1-c1ccc2ccccc2c1	inactive	
CCOc1cc(CNc2ccc(N3CCN(C(C)=O)CC3)cc2)cc(Br)c1OC	inconclusive [inhibitor, single point]	
CCOC(=O)c1c(-c2ccccc2)csc1NC(=O)c1nn(CC)cc1Br	inactive	
CC(NC(=O)COC(=O)C1CSC2(C)CCC(=O)N12)C12CC3CC(CC(C3)C1)C2 (centres undefined)	inconclusive [inhibitor, partial curve, poor fit]	
COc1ccc(CC(=O)Nc2ccc(-c3noc(-c4ccccc4OC)n3)cc2)cc1	inconclusive [inhibitor, partial curve]	
Cc1[nH]c2c(ccc3cccnc32)c1C	inconclusive [inhibitor, single point]	
Cc1ccc(-c2nc3c4ccccc4ccn3c2Cc2ccccc2)cc1	inconclusive [inhibitor, partial curve]	
COc1cccc(/C=N/N2CCN(c3ccccc3OC)CC2)c1	inconclusive [inhibitor, partial curve]	
CCOc1ccc(C2=NNC(c3cccs3)=Nc3ccc(OC)cc32)cc1	inconclusive [inhibitor, full curve, poor fit]	
CC(C)(C)c1ccc(CNc2cc(N3CCOCC3)ccc2[N+](=O)[O-])cc1	inconclusive [inhibitor, partial curve]	
CC(C)(C)[C@H]1COC(=O)CCCC/C=C\C[C@H](CC(=O)NCCO)C(=O)N1	inactive	
O=[N+]([O-])c1ccccc1N=NNc1ccccc1	inconclusive [inhibitor, partial curve]	
Cc1ccc(CSc2ccc(-c3ccc4c(c3)OCO4)nn2)cc1	inconclusive [inhibitor, single point]	
COc1cc(N)ccc1Nc1c2ccccc2nc2ccccc12	inconclusive [inhibitor, partial curve]	
Cn1c(-c2ccc(Br)cc2)cnc1NCc1ccc(C#N)cc1	inconclusive [inhibitor, single point]	
Cc1ccc2[nH]c(C(=O)N3CCCC(Nc4ccc(F)cc4)C3)cc2c1 (centres undefined)	inconclusive [inhibitor, partial curve]	
CC(C)(C)n1nnnc1CN1CCN(C(c2ccccc2)c2ccccc2)CC1	inconclusive [inhibitor, partial curve]	
O=[N+]([O-])c1ccc(S(=O)(=O)N2CCSC2c2ccco2)cc1 (centres undefined)	inconclusive [inhibitor, single point]	
COc1cc(-n2nnnc2SCC(=O)N2CCN(c3ccc(F)cc3)CC2)c(OC)cc1Cl	inactive	
COc1cc(Br)c(CNCCc2ccc3c(c2)OCO3)cc1OC	inconclusive [inhibitor, partial curve]	
CCN(CCO)c1ccc(Nc2cc(-c3ccc(-c4ccccc4)cc3)ncn2)cc1	inconclusive [inhibitor, single point]	
CCOc1ccc(N=C2C(=O)Nc3ccc(C)c(Br)c32)cc1	inconclusive [inhibitor, partial curve]	
O=C(Nc1cccc(CNCCc2c[nH]c3ccccc23)c1)c1ccccc1Cl	inconclusive [inhibitor, partial curve]	

SMILES	Potency	activity change, negative = inhibition
O=C(Nc1ncc(Cc2ccccc2)s1)C1COc2ccccc2O1 (centres undefined)	inactive	
CN1c2ccccc2Sc2cc(N)ccc21	inconclusive [inhibitor, partial curve]	
C=CCC1Cc2c(cccc2[N+](=O)[O-])C(CC=C)N1 (centres undefined)	inconclusive [inhibitor, partial curve]	
Cc1ccc(S(=O)(=O)Nc2c(O)ccc3ccccc23)cc1	inconclusive [inhibitor, single point]	
Nn1c(SCC(=O)Nc2ccc(F)cc2F)nnc1C1CCCCC1	inconclusive [inhibitor, single point]	
O=C(OCC(=O)N1CCC(c2ccccc2)=N1)c1ccc([N+](=O)[O-])s1	inconclusive [inhibitor, single point]	
CCN(CC(=O)Nc1ccc(NC(C)=O)cc1)C(=O)CSCC(=O)Nc1ccc(C)cc1	inactive	
O=C(c1cc(-c2ccco2)nc2ccccc12)N1CCN(c2ccc(F)cc2)CC1	inconclusive [inhibitor, partial curve]	
Nc1cc([N+](=O)[O-])cc2oc(-c3ccccc3)cc12	inconclusive [inhibitor, partial curve]	
O=C(CSc1ccc(-c2ccccn2)nn1)Nc1ccc(F)cc1F	inconclusive [inhibitor, partial curve]	
Cc1ccn2c(CC(C)(C)C)c(-c3ccc(F)cc3)nc2c1	inconclusive [inhibitor, partial curve, poor fit]	
CCOC(=O)C1(CC2CC2)CCN(C(=O)c2cc(C3CC3)nc3ccccc23)CC1	inconclusive [inhibitor, partial curve]	
O=C(/C(=C/O)N=Nc1ccccc1)c1cccs1	inconclusive [inhibitor, single point]	
CCOc1ccccc1NC(=O)N1CCC(NC(=O)c2cccc(C)c2)CC1	inactive	
CCn1c(-c2ccccc2O)n[nH]c1=S	inactive	
Cc1sc(NC(=O)Cc2ccc3c(c2)OCO3)nc1-c1ccc2c(c1)CCN2C(=O)c1cccc(F)c1	inconclusive [inhibitor, full curve]	
Cc1onc(-c2ccccc2Cl)c1C(=O)N(Cc1ccc(N(C)C)cc1)C(C)C	inconclusive [inhibitor, single point]	
Cc1cc(C)cc(N2C(=O)C3CCCN3C2=S)c1 (centres undefined)	inconclusive [inhibitor, single point]	
CCOC(=O)c1[nH]c2ccc(OC)cc2c1NC(=O)CN1CCSCC1		inconclusive: -19% [inhibitor]
Cc1ccc(OCCCCn2cnc3ccccc32)c(C)c1	inconclusive [inhibitor, single point]	
Oc1ccc(NCc2ccccc2OCc2ccccc2F)cc1	inconclusive [inhibitor, single point]	
Nc1ccc(Cc2nc3c(ccc4ccccc43)[nH]2)cc1	inactive	
CN(C)c1ccc(CNc2ccccn2)cc1	inconclusive [inhibitor, single point]	

SMILES	Potency	activity change, negative = inhibition
COc1cc(CN2CCN(Cc3ccc(C(F)(F)F)cc3)CC2)cc(OC)c1OC	inconclusive [inhibitor, single point]	
COc1cc2c(cc1OC)-c1c(OC)c(OC)cc3c1[C@H](C2)N(C)CC3	inactive	
COc1ccc(CNCCc2c[nH]c3ccccc23)c(OC)c1C	inconclusive [inhibitor, partial curve]	
O=C(c1cccs1)N1CCN(Cc2cccc([N+](=O)[O-])c2)CC1	inconclusive [inhibitor, partial curve]	
Cc1ccc(C(c2sc3nc(C)nn3c2O)N2CCOCC2)cc1 (centres undefined)	inconclusive [inhibitor, single point]	
CC(=O)NCCOC(=O)c1nn(Cc2ccccc2)c(=O)c2ccccc12	inactive	
COc1ccc(C(O)c2ncc(-c3cccc(F)c3)[nH]2)cc1F (centres undefined)	inactive	
Cc1cc(-c2ccc(C(C)C)c(S(=O)(=O)N3CCN(c4ccccc4)CC3)c2)on1	inconclusive [inhibitor, partial curve]	
CCN(CCn1cccn1)Cc1cn[nH]c1-c1cccc2ccccc12	inactive	
CC1CC(C)CN(C(=O)Cn2c(=O)oc3cc(S(=O)(=O)N4CCCC4)ccc32)C1 (centres undefined)	inactive	
COc1ccc(Cl)cc1NC(=O)CN(C)C(=O)c1cc(-c2ccncc2)nc2ccccc12	inconclusive [inhibitor, partial curve]	
CC1CCN(c2ccc(C(=O)O)cc2NS(=O)(=O)c2ccc(Br)cc2)CC1	inconclusive [inhibitor, single point]	
O=C(CNC(=O)c1ccc2c(c1)OCO2)NCc1cccs1	inactive	
Clc1ccc(CSc2nncn2-c2ccccn2)cc1	inconclusive [inhibitor, partial curve]	
COc1ccc(C)cc1Nc1n[n+](-c2ccccc2)c(-c2c(Cl)cccc2Cl)s1	inconclusive [inhibitor, single point]	
O=C(Nc1ccc2c(c1)OCO2)c1cccc2c1C(=O)N(Cc1cccnc1)C2	inconclusive [inhibitor, full curve]	
CC(C)[C@H](N)c1nnc(SCc2ccc(Cl)cc2)o1	inactive	
O=C(Nc1nnc(SCc2ccc(F)cc2)s1)c1ccc2ncsc2c1	inconclusive [inhibitor, single point]	
OC(COc1ccc2c(c1)OCO2)CN1CCN(c2ccccc2)CC1 (centres undefined)	inconclusive [inhibitor, partial curve]	
Cc1cn(C2CCCO2)c(=O)nc1N (centres undefined)	inconclusive [inhibitor, partial curve]	
O=[N+]([O-])c1cc(Cl)ccc1N1CCN(c2ccccc2O)CC1	inconclusive [inhibitor, single point]	
Cc1ccc(S(=O)(=O)CCC(=O)OCC(=O)NCc2ccccc2)cc1	inconclusive [inhibitor, single point]	
O=C(O)c1ccc2c(=O)n3c(nc2c1)/C(=C/c1ccc(OC(F)F)cc1OC(F)F)CC3	active: 20 µM	
